In the RNAGym collection of RNA variant scans (doi:10.1093/nar/gkz1192) one finds self-cleavage data, which are given here for 167 variants.

First the molecules themselves.
B1: CPEB3 Ribozyme (parent)
chain: UAACAGGGGGCCACAGCAGAAGCGUUCACGUCGCAGCCCCUGUCAGAUUCUGGUGAAUCUGCGAAUUCUGCUGUAUAUCUC

Read counts are not given, so values of variants with three or more changes are uncertain.

Variants of B1 are the subject of this data set. Put plainly: self-cleavage, relative activity (ratio to wild type); higher = more cleavage; in vitro, sequencing. The procedure, abridged:
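Relative activity compares each variant's cleaved/total read fraction with that of the unmutated ribozyme. To get these fractions, barcoded CPEB3 ribozyme libraries from rounds of error-prone PCR were transcribed with T7 RNA polymerase for 5 hours at 37°C and then given 15 min of DNase I treatment before EDTA was added. The RNAs were reverse transcribed with template switching and sequenced on Illumina, and DNA sequencing linked barcodes to variants. A minimum of 5 reads applied, and three batches were averaged.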
As for C39U A47G U48C, the self-cleavage stood at 0.21.

For the variant A35U U54A A56G, the self-cleavage was found to be 0.23. With C37A A65G U67C, the self-cleavage was determined as 0.14. As for A35G U69C U76C, the figure is 1.01.

For the variant A35U U43C U54C A65G, the self-cleavage is 0.12. Next, C40U A65U A75G: 0.13; A35G U60A U69C A75G: 0.59; A35U U43C A47U U51A A56C: 0.15. Regarding U41A U49C U60C, the self-cleavage came to 0.12. Consider C38A U43A U49C, for which the self-cleavage was determined as 0.06. With U41C A64G U74A A75G, the self-cleavage came out at 0.96. Next, C39G U49C C68U: 0.06; U41A U67C U69A U72C: 0.26; C38U A45G A65G U67C A77G: 0.09. Regarding C37U A45U U78C, the self-cleavage was 0.27. With C38G U54C U58C, the self-cleavage worked out at 0.12. U41C G55C U58A A64U U69A: the self-cleavage came out at 0.28.

As to C39U U43C A65G, the self-cleavage came to 0.16. U41A C59A U60A: the self-cleavage is 0.11. Turning to A35U U43A U48G, the self-cleavage worked out at 0.22.

In the case of C38A U48C A57G, the self-cleavage was determined as 0.19. In the case of C37U C40U U58C U80A, the self-cleavage amounted to 0.22.

Regarding A35U U66C U74C, the self-cleavage came out at 0.21. Next, C39A U67C A77U: 0.08. As for G36U U67G G70C, the figure is 0.11. Regarding U41A U49C A56G U69C U72A U80A, the self-cleavage came out at 0.08.

In the case of C39U A64G U69C U78C, the self-cleavage amounted to 0.07. In the case of C37U A45G U54C C81A, the self-cleavage is 0.49. Regarding C37U C40A A45G, the self-cleavage came out at 0.3. In the case of A35U U41A U43C G46U U48C A77U, the self-cleavage came to 0.15. Turning to U41C G46A U48G, the self-cleavage was 0.26. As for C38G G55U A57U, the figure is 0.17; as for U41A U43G U74C, 0.31; as for A35U A56U U67C, 0.18. Next, U41C U43A U80C: 0.71; C40A A45U A64G U66C A77G: 0.08. Turning to A35G U54C A64U, the self-cleavage turned out to be 1.19. As to C37U A45G U69A A77G, the self-cleavage came out at 0.07.

For C40A U49A U72C U76C, the self-cleavage amounted to 0.22. Next, U41C A57G U72C: 1.01; C37U G42U A47G U48C: 0.14; C40U A47U A57G: 0.09. As for A35G U60C U78A, the figure is 1.23.

C38A U43C U72A: the self-cleavage is 0.26. As to U41C A45G U49C, the self-cleavage turned out to be 0.14. As for A35U A65G U69C, the figure is 0.07; as for A35U U43C A45G U60A U67C, 0.36; as for U41A U43C U78C, 0.2. As for A35U A45G A56C, the figure is 0.08. As to U41A A47G A56U A77G, the self-cleavage came to 0.1. As for U41A A47G U69C, the self-cleavage worked out at 0.21.

On to U41C U43A A56G U66A U76A U78C, for which the self-cleavage is 0.21. As for A35G U51C A57G, the figure is 1.26.

For the variant A35G U48C A64G U67C C68U, the self-cleavage is 0.48. On to C40G A45G U49C U72C, for which the self-cleavage came out at 0.13. Turning to U41C A64G U76C U78A, the self-cleavage was 1.07. Regarding C38U A45G U49C A77U, the self-cleavage came out at 0.25. As for A35U A47G U58C U66C, the figure is 0.15. As for A35U C38A U80C, the figure is 0.3; as for U41A U43A U58C U72C, 0.15; as for U41C A65U C68A, 0.25. On to U41A U69C U80A, for which the self-cleavage was determined as 0.19. With C39A U43C A77U, the self-cleavage was found to be 0.42. Take A35U U41C A45G: the self-cleavage came out at 0.36.

For the variant U41C C50U U78A, the self-cleavage stood at 1.08.

Turning to U41A C59A A64U U67A U69C A75G, the self-cleavage came to 0.04. Regarding U41C A47G U48C U54C, the self-cleavage is 0.16. With C37G A65G U80A, the self-cleavage worked out at 0.51. For C39G U41C C81U, the self-cleavage worked out at 0.25. For A35U G63A U69C U76A, the self-cleavage is 0.12. As for C39A G52C A56G, the figure is 0.17. For A35G U49C G53A U78A, the self-cleavage amounted to 1.15. On to C38A U41C A56G U67A, for which the self-cleavage came to 0.12. Next, C38A U51C U54C: 0.15; U41A A56G U67G: 0.03; U41A U43C U51C A56G U80A: 0.21. C37U U41C U72G: the self-cleavage is 0.66. As to A35U U43A U51G U54A U72G, the self-cleavage was 0.89. Regarding A35U U67A U69C U80A, the self-cleavage was determined as 0.09.

Regarding U41A G46C U54A U72C, the self-cleavage was determined as 0.24. Regarding G36A U41A U60A C68U, the self-cleavage came to 0.1. As for A35U U54A A56U U72A, the figure is 0.14.

In the case of U41A U49A G63U U80C, the self-cleavage is 0.1. Consider U41A U58C A65C G70C, for which the self-cleavage worked out at 0.09. Consider U41A A47G U60C, for which the self-cleavage was determined as 0.24. For C37U A56G G70A U72A, the self-cleavage stood at 0.12.

Take C39A A45C A56G U60C: the self-cleavage amounted to 0.14. With U41C A75G U80A, the self-cleavage is 1.14. Consider U41C A75G U80C, for which the self-cleavage came to 0.85. U41A U49C A65G: the self-cleavage stood at 0.09. As for A35G U51C A65G U72C, the figure is 1.05.

For C38U A45G A64U, the self-cleavage turned out to be 0.15.

Take U41C C50A A64G: the self-cleavage is 0.61.

Regarding C39U A57G A77G, the self-cleavage worked out at 0.14. C38A U41A U66C: the self-cleavage came to 0.42. Take C39U A65C U76C: the self-cleavage was determined as 0.15. Take C40A A47G U69A: the self-cleavage came out at 0.13. On to C39A A45G U49C, for which the self-cleavage is 0.08. Turning to A35U U66C U72A, the self-cleavage came out at 0.14.

In the case of C39A C40U G63A C68A U74C A77U, the self-cleavage was found to be 0.06. Turning to A35G U66G U69A, the self-cleavage was 0.65.

As to G36A A47G G55U U67C U69C U72C, the self-cleavage turned out to be 0.03. On to U41A U54C A56U, for which the self-cleavage was found to be 0.09.

In the case of A35G U49C U51A G53A A57U, the self-cleavage worked out at 1.18. For U41C A47G U51G U58A, the self-cleavage is 0.25.

Consider U41C A47G U54C U72G U76C, for which the self-cleavage is 0.87.

Take A35U U51C U69G U72C: the self-cleavage turned out to be 0.13.

For G36A U48C U74A, the self-cleavage stood at 0.17. For C40U U41C A47U U58C U60A, the self-cleavage stood at 0.14.

As for C38G A45G U51A A75U, the self-cleavage was found to be 0.15. As for U41C A56G G61U U69C A75U, the self-cleavage was found to be 0.38. For U41A U49A U51A G52C U69C U80C, the self-cleavage was 0.17. With C40U A45U U78C U80C, the self-cleavage worked out at 0.1.

For U41C A45G A47G U49A, the self-cleavage amounted to 0.41. Consider U41C U43C U72C, for which the self-cleavage came out at 0.22. Take U41A G53A A64U A77G: the self-cleavage was determined as 0.13. In the case of A35G U48C U54C A75G, the self-cleavage worked out at 1. With U41A U51A U69A, the self-cleavage was found to be 0.1.

Regarding C40U U60C U69C A75G, the self-cleavage was 0.09.

For the variant U41A A45G U49C U80C, the self-cleavage came to 0.08. As to U41A U60A A77U, the self-cleavage was 0.35. With U41C A45U U67C U69A, the self-cleavage was determined as 0.2. G36U U51G U78A: the self-cleavage was 0.14. As to U41C U43A U48A U60C G61U U69C, the self-cleavage was 0.11. Regarding A35G U60C U72C, the self-cleavage was 1.19. For the variant C39G U41C U67A, the self-cleavage turned out to be 0.22.

With C40A U54A A56U, the self-cleavage amounted to 0.36. A35U U41C A75C: the self-cleavage was determined as 0.57. For U41C A64U U76C, the self-cleavage came out at 0.25. As for A35U A65U C68G, the figure is 0.12; as for C38U C39A U43C G52C U58C, 0.16; as for U41C A56G C62G U69A, 0.29. Regarding A35G U58G A65G U66C, the self-cleavage was 0.41. Consider U41C A45U G73A, for which the self-cleavage came out at 0.74. Consider C40A A45U U58C, for which the self-cleavage worked out at 0.22. As for C39A A45C U60C A65G, the figure is 0.1; as for A35G U49C U66C, 0.38; as for C40U A45G U69A U78C, 0.26. Take U41A U54A A64G U66C: the self-cleavage was 0.08. As for U41A U60A U78C, the figure is 0.08. On to A35G U54C U60C, for which the self-cleavage turned out to be 1.09.

As for A35G U54C U60G, the self-cleavage is 1.18. As to C38U A64G U67A, the self-cleavage was determined as 0.3.

With U41C A45G A65U, the self-cleavage came to 0.19. For the variant A35U U41A A45C C71G U72A, the self-cleavage was determined as 0.07.

For C40U A45G U72C, the self-cleavage is 1. In the case of C40U A45U U60A U69G, the self-cleavage came to 0.29. U41C A56U U67C: the self-cleavage was 0.32. As to U41C A47G U66C, the self-cleavage was determined as 0.46.

As for A35U U43C U49C U54C, the self-cleavage stood at 0.23. Next, A35U U51A A65G U72A U78C U80C: 0.14. As for U41C G70U U78C, the self-cleavage amounted to 0.34. On to A35U C37U U43C A75G, for which the self-cleavage is 0.1. With C39G U43C A47G U66C U72C A77U, the self-cleavage was 0.23.

Regarding A35U C40U A56G U78C, the self-cleavage came to 0.15.

For the variant C39A U51C U72C, the self-cleavage amounted to 0.43. With A35U A45G U72G, the self-cleavage is 0.24.

Regarding A35U U54C U67A, the self-cleavage came to 0.09. Next, A35U A64G U74C: 0.48; U41A U54C G73U: 0.68; A35U A47G A64U U74A: 0.14. As for U41A U51C U80C, the figure is 0.41. Next, C37U C59U C81A: 1.01. As to G36A A47U U76C, the self-cleavage was determined as 0.42. Consider U41C A57U U66C, for which the self-cleavage is 0.23.

For the variant C40U U41C U72C, the self-cleavage was determined as 1.07.

As for U41C A47U U69G U72C, the self-cleavage worked out at 0.53.
